Data from the supplement of paper PMC8728848.
The other results are listed elsewhere or left out.

What was measured:
Experiment in all cases: glycan array binding signal (z-score within array); higher = stronger binding
Settings in all cases: glycan notation: IUPAC condensed, linker removed
[1] = target: Gal(b1-3)GlcNAc(b1-2)Man(a1-3)[Gal(b1-3)GlcNAc(b1-2)Man(a1-6)]Man(b1-4)GlcNAc(b1-4)[Fuc(a1-6)]GlcNAc
Procedure, shortened: (§1)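 Glycan array data were curated from 3228 arrays in the Consortium for Functional Glycomics database and kept only where the protein sequence was available. Glycan names were converted to IUPAC-condensed notation, and columns mapping to the same glycan were averaged. The binding signal is a within-array Z-score, averaged across arrays of the same protein sequence at different concentrations or buffers and across linkers. Negative Z-scores can be read as non-binding.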

[2] = target: Gal(b1-3)GlcNAc(b1-2)Man(a1-3)[GlcNAc(b1-4)][Gal(b1-3)GlcNAc(b1-2)Man(a1-6)]Man(b1-4)GlcNAc(b1-4)GlcNAc
Procedure, shortened: as §1

[3] = target: Gal(b1-3)GlcNAc(b1-2)[Gal(b1-3)GlcNAc(b1-6)]Man(a1-6)[Gal(b1-3)GlcNAc(b1-2)Man(a1-3)]Man(b1-4)GlcNAc(b1-4)GlcNAc
Procedure, shortened: as §1

[4] = target: Gal(b1-3)GlcNAc(b1-3)Gal(b1-3)GlcNAc
Procedure, shortened: as §1

[5] = target: Gal(b1-3)GlcNAc(b1-3)Gal(b1-4)Glc
Procedure, shortened: as §1

[6] = target: Gal(b1-3)GlcNAc(b1-3)Gal(b1-4)GlcNAc
Procedure, shortened: as §1

[7] = target: Gal(b1-3)GlcNAc(b1-3)Gal(b1-4)GlcNAc(b1-2)Man(a1-3)[Gal(b1-3)GlcNAc(b1-3)Gal(b1-4)GlcNAc(b1-2)Man(a1-6)]Man(b1-4)GlcNAc(b1-4)GlcNAc
Procedure, shortened: as §1

[8] = target: Gal(b1-3)GlcNAc(b1-3)Gal(b1-4)GlcNAc(b1-2)[Gal(b1-3)GlcNAc(b1-3)Gal(b1-4)GlcNAc(b1-6)]Man(a1-6)[Gal(b1-3)GlcNAc(b1-3)Gal(b1-4)GlcNAc(b1-2)Man(a1-3)]Man(b1-4)GlcNAc(b1-4)[Fuc(a1-6)]GlcNAc
Procedure, shortened: as §1

[9] = target: Gal(b1-3)GlcNAc(b1-3)Gal(b1-4)GlcNAc(b1-3)Gal(b1-4)GlcNAc(b1-2)[Gal(b1-3)GlcNAc(b1-3)Gal(b1-4)GlcNAc(b1-3)Gal(b1-4)GlcNAc(b1-6)]Man(a1-6)[Gal(b1-3)GlcNAc(b1-3)Gal(b1-4)GlcNAc(b1-3)Gal(b1-4)GlcNAc(b1-2)Man(a1-3)]Man(b1-4)GlcNAc(b1-4)[Fuc(a1-6)]GlcNAc
Procedure, shortened: as §1

[10] = target: Gal(b1-3)GlcNAc(b1-3)Gal(b1-4)GlcNAc(b1-6)[Gal(b1-3)GlcNAc(b1-3)]Gal(b1-4)Glc
Procedure, shortened: as §1

[11] = target: Gal(b1-3)GlcNAc(b1-3)Gal(b1-4)[Fuc(a1-3)]GlcNAc
Procedure, shortened: as §1

[12] = target: Gal(b1-3)GlcNAc(b1-3)Gal(b1-4)[Fuc(a1-3)]GlcNAc(b1-6)[Gal(b1-3)GlcNAc(b1-3)]Gal(b1-4)Glc
Procedure, shortened: as §1

[13] = target: Gal(b1-3)GlcNAc(b1-3)GalNAc
Procedure, shortened: as §1

[14] = target: Gal(b1-3)GlcNAc(b1-6)Gal(b1-4)GlcNAc
Procedure, shortened: as §1

[15] = target: Gal(b1-3)GlcNAc(b1-6)GalNAc
Procedure, shortened: as §1

[16] = target: Gal(b1-3)GlcNAc(b1-6)[Gal(b1-3)]GalNAc
Procedure, shortened: as §1

Gal(b1-3)GlcNAc6S = target: Gal(b1-3)GlcNAc6S
Procedure, shortened: as §1

[17] = target: Gal(b1-3)[Fuc(a1-4)]GlcNAc
Procedure, shortened: as §1

[18] = target: Gal(b1-3)[Fuc(a1-4)]GlcNAc(b1-2)Man
Procedure, shortened: as §1

[19] = target: Gal(b1-3)[Fuc(a1-4)]GlcNAc(b1-2)Man(a1-3)[Gal(b1-3)[Fuc(a1-4)]GlcNAc(b1-2)Man(a1-6)]Man(b1-4)GlcNAc(b1-4)[Fuc(a1-6)]GlcNAc
Procedure, shortened: as §1

[20] = target: Gal(b1-3)[Fuc(a1-4)]GlcNAc(b1-3)Gal(b1-3)[Fuc(a1-4)]GlcNAc
Procedure, shortened: as §1

[21] = target: Gal(b1-3)[Fuc(a1-4)]GlcNAc(b1-3)Gal(b1-4)[Fuc(a1-3)]GlcNAc
Procedure, shortened: as §1

[22] = target: Gal(b1-3)[Fuc(a1-4)]GlcNAc(b1-6)GalNAc
Procedure, shortened: as §1

[23] = target: Gal(b1-3)[GlcNAc(b1-6)]GalNAc
Procedure, shortened: as §1

[24] = target: Gal(b1-3)[Neu5Ac(a2-6)]GalNAc
Procedure, shortened: as §1

[25] = target: Gal(b1-3)[Neu5Ac(a2-6)]GlcNAc(b1-4)Gal(b1-4)Glc
Procedure, shortened: as §1

[26] = target: Gal(b1-3)[Neu5Ac(b2-6)]GalNAc
Procedure, shortened: as §1

Gal(b1-4)Gal = target: Gal(b1-4)Gal
Procedure, shortened: as §1

[27] = target: Gal(b1-4)GalNAc(a1-3)[Fuc(a1-2)]Gal(b1-4)GlcNAc
Procedure, shortened: as §1

[28] = target: Gal(b1-4)GalNAc(b1-3)[Fuc(a1-2)]Gal(b1-4)GlcNAc
Procedure, shortened: as §1

Gal(b1-4)Glc = target: Gal(b1-4)Glc
Procedure, shortened: as §1

Gal(b1-4)Glc6S = target: Gal(b1-4)Glc6S
Procedure, shortened: as §1

Gal(b1-4)GlcNAc = target: Gal(b1-4)GlcNAc
Procedure, shortened: as §1

[29] = target: Gal(b1-4)GlcNAc(a1-6)Gal(b1-4)GlcNAc
Procedure, shortened: as §1

Gal(b1-4)GlcNAc(b1-2)Man = target: Gal(b1-4)GlcNAc(b1-2)Man
Procedure, shortened: as §1

[30] = target: Gal(b1-4)GlcNAc(b1-2)Man(a1-3)Man(b1-4)GlcNAc(b1-4)GlcNAc
Procedure, shortened: as §1

[31] = target: Gal(b1-4)GlcNAc(b1-2)Man(a1-3)[Gal(b1-4)GlcNAc(b1-2)Man(a1-6)]Man(b1-4)GlcNAc(b1-4)GlcNAc
Procedure, shortened: as §1

[32] = target: Gal(b1-4)GlcNAc(b1-2)Man(a1-3)[Gal(b1-4)GlcNAc(b1-2)Man(a1-6)]Man(b1-4)GlcNAc(b1-4)[Fuc(a1-6)]GlcNAc
Procedure, shortened: as §1

[33] = target: Gal(b1-4)GlcNAc(b1-2)Man(a1-3)[Gal(b1-4)GlcNAc(b1-2)Man(a1-6)][Gal(b1-4)GlcNAc(b1-4)]Man(b1-4)GlcNAc(b1-4)[Fuc(a1-6)]GlcNAc
Procedure, shortened: as §1

[34] = target: Gal(b1-4)GlcNAc(b1-2)Man(a1-3)[Gal(b1-4)GlcNAc(b1-2)Man(a1-6)][GlcNAc(b1-4)]Man(b1-4)GlcNAc(b1-4)[Fuc(a1-6)]GlcNAc
Procedure, shortened: as §1

[35] = target: Gal(b1-4)GlcNAc(b1-2)Man(a1-3)[GlcNAc(b1-2)Man(a1-6)]Man(b1-4)GlcNAc(b1-4)GlcNAc
Procedure, shortened: as §1

[36] = target: Gal(b1-4)GlcNAc(b1-2)Man(a1-3)[GlcNAc(b1-4)][Gal(b1-4)GlcNAc(b1-2)Man(a1-6)]Man(b1-4)GlcNAc(b1-4)GlcNAc
Procedure, shortened: as §1

[37] = target: Gal(b1-4)GlcNAc(b1-2)Man(a1-3)[Man(a1-6)]Man(b1-4)GlcNAc(b1-4)GlcNAc
Procedure, shortened: as §1

[38] = target: Gal(b1-4)GlcNAc(b1-2)Man(a1-6)Man(b1-4)GlcNAc(b1-4)GlcNAc
Procedure, shortened: as §1

[39] = target: Gal(b1-4)GlcNAc(b1-2)Man(a1-6)[GlcNAc(b1-2)Man(a1-3)]Man(b1-4)GlcNAc(b1-4)GlcNAc
Procedure, shortened: as §1

B1: Mermaid3 (Stilbonema majum) (protein)
chain: MGSSHHHHHHSSGLVPRGSHMAASGWLRSPQGTVVKLYRRSLSWSKADEFCKDVDGRLVVDRTADMHLFLIKNVLKEKKSRVWVGLRRTASHSRTWIWSDGTRQNEGDLDANLWLRDEPNDAAGEEECALFMYSPWEKAWGLNDYLCRGGCRNYQFICEKWIR
Question: How did the “glycan array binding signal (z-score)” value [1] turn out when B1 was run?
Answer: The value was -0.057.

Question: And the “glycan array binding signal (z-score)” value [2]?
Answer: The value was 0.005.

Question: And the “glycan array binding signal (z-score)” value [3]?
Answer: The value was 0.317.

Question: And the “glycan array binding signal (z-score)” value [4]?
Answer: Its value is -0.164.

Question: And the “glycan array binding signal (z-score)” value [5]?
Answer: Its value is -0.458.

Question: What about the “glycan array binding signal (z-score)” value [6] of the same binder?
Answer: The value was -0.698.

Question: What about the “glycan array binding signal (z-score)” value [7] of the same binder?
Answer: Its value is -0.35.

Question: And the “glycan array binding signal (z-score)” value [8]?
Answer: Its value is 1.22.

Question: What about the “glycan array binding signal (z-score)” value [9] of the same binder?
Answer: The value was 5.6.

Question: And the “glycan array binding signal (z-score)” value [10]?
Answer: Its value is -0.577.

Question: What about the “glycan array binding signal (z-score)” value [11] of the same binder?
Answer: Its value is -0.358.

Question: What about the “glycan array binding signal (z-score)” value [12] of the same binder?
Answer: The value was -0.423.

Question: And the “glycan array binding signal (z-score)” value [13]?
Answer: Its value is -0.339.

Question: What about the “glycan array binding signal (z-score)” value [14] of the same binder?
Answer: The value was -0.045.

Question: What about the “glycan array binding signal (z-score)” value [15] of the same binder?
Answer: The value was -0.286.

Question: And the “glycan array binding signal (z-score)” value [16]?
Answer: Its value is 0.038.

Question: What about the “glycan array binding signal (z-score)” value (Gal(b1-3)GlcNAc6S) of the same binder?
Answer: The value was -0.646.

Question: And the “glycan array binding signal (z-score)” value [17]?
Answer: The value was -0.265.

Question: And the “glycan array binding signal (z-score)” value [18]?
Answer: Its value is 0.676.

Question: What about the “glycan array binding signal (z-score)” value [19] of the same binder?
Answer: Its value is 0.655.

Question: And the “glycan array binding signal (z-score)” value [20]?
Answer: The value was -0.634.

Question: And the “glycan array binding signal (z-score)” value [21]?
Answer: Its value is -0.384.

Question: And the “glycan array binding signal (z-score)” value [22]?
Answer: The value was -0.266.

Question: And the “glycan array binding signal (z-score)” value [23]?
Answer: The value was -0.523.

Question: What about the “glycan array binding signal (z-score)” value [24] of the same binder?
Answer: The value was -0.57.

Question: And the “glycan array binding signal (z-score)” value [25]?
Answer: Its value is -0.544.

Question: And the “glycan array binding signal (z-score)” value [26]?
Answer: Its value is -0.753.

Question: And the “glycan array binding signal (z-score)” value (Gal(b1-4)Gal)?
Answer: Its value is 6.72.

Question: What about the “glycan array binding signal (z-score)” value [27] of the same binder?
Answer: Its value is -0.207.

Question: And the “glycan array binding signal (z-score)” value [28]?
Answer: The value was 0.176.

Question: And the “glycan array binding signal (z-score)” value (Gal(b1-4)Glc)?
Answer: The value was -0.176.

Question: And the “glycan array binding signal (z-score)” value (Gal(b1-4)Glc6S)?
Answer: Its value is -0.269.

Question: What about the “glycan array binding signal (z-score)” value (Gal(b1-4)GlcNAc) of the same binder?
Answer: Its value is -0.633.

Question: And the “glycan array binding signal (z-score)” value [29]?
Answer: Its value is -0.542.

Question: What about the “glycan array binding signal (z-score)” value (Gal(b1-4)GlcNAc(b1-2)Man) of the same binder?
Answer: Its value is 0.091.

Question: What about the “glycan array binding signal (z-score)” value [30] of the same binder?
Answer: The value was -0.771.

Question: What about the “glycan array binding signal (z-score)” value [31] of the same binder?
Answer: The value was -0.555.

Question: And the “glycan array binding signal (z-score)” value [32]?
Answer: The value was 0.34.

Question: What about the “glycan array binding signal (z-score)” value [33] of the same binder?
Answer: The value was -0.507.

Question: And the “glycan array binding signal (z-score)” value [34]?
Answer: The value was -0.671.

Question: And the “glycan array binding signal (z-score)” value [35]?
Answer: The value was -0.676.

Question: What about the “glycan array binding signal (z-score)” value [36] of the same binder?
Answer: Its value is -0.656.

Question: What about the “glycan array binding signal (z-score)” value [37] of the same binder?
Answer: The value was 3.26.

Question: And the “glycan array binding signal (z-score)” value [38]?
Answer: The value was -0.602.

Question: What about the “glycan array binding signal (z-score)” value [39] of the same binder?
Answer: Its value is -0.554.
